Laboratory results: patent publication US20230391887A1 (CITY OF HOPE, published 2023)

How the values were obtained:
EGFR on MDA-MB-468 cells [1] = target: T1, EGFR on MDA-MB-468 cells (UniProt P00533); assay: fluorescence microscopy on MDA-MB-468 cells
T1 construct: whole, on cells; also called EGFR positive MD-MBA-468 cells; untreated cells

EGFR on MDA-MB-468 cells [2] = target: T1, EGFR on MDA-MB-468 cells; assay: FACS on MDA-MB-468 cells

binding result (EGFR on MDA-MB-468 cells [1]) | binding result (EGFR on MDA-MB-468 cells [2]) | Binder
no binding | – | tetravalent meditope-Fc (M4FC, SEQ ID NO: 58) (Fc fusion) GCQFDLSTRRLRCGGSRSGGTSGTGSTSGSGSSGSTSGSGKSSEGSGQAS[human IgG1 Fc and a few adjoining residues not written out]GGSRSGGTSSSSSGSGSGSSGSTSGSGSSGCQFDLSTRRLRCG
– | no binding | meditope-Fc (bivalent meditope-Fc construct, SEQ ID NO: 57) (Fc fusion, homodimer through the Fc; Alexa Fluor-labeled in the cell studies; also called MFC) GCQFDLSTRRLRCGGSRSGGTSGGGSVPGSGSSGSTSGSGKSSEGSGQ[human IgG1 Fc and a few adjoining residues not written out]
